# Data reported in the supplement of paper PMC8728848.
# The list shows a part of the results.
# B1: HHA (Hippeastrum hybrid) (protein)
# chain: MQQDCNLVLYDVDKPIWASNTGGLARDCHLNMQSDGNLVVYAPRNQVIWASNTQGENGNYVCILQKDRNVVIYGTARWATGTNIHGAGIVGVPGSAPQNTTAEMIKLVRKYLITK
# Experiments:
# Assay in all cases: glycan array binding signal (z-score within array); higher = stronger binding
# Conditions in all cases: glycan notation: IUPAC condensed, linker removed
# [1] = target: Neu5Ac(a2-6)Gal(b1-4)GlcNAc(b1-2)Man(a1-6)Man(b1-4)GlcNAc(b1-4)GlcNAc
# How it was run: (§1)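 The Consortium for Functional Glycomics database supplied 3228 glycan arrays, of which those lacking an available protein sequence were dropped. The binding signal, a within-array Z-score, was averaged across arrays of the same protein sequence and across linkers. Negative scores can be read as non-binding.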
# [2] = target: Neu5Ac(a2-6)Gal(b1-4)GlcNAc(b1-2)Man(a1-6)[Gal(b1-4)GlcNAc(b1-2)Man(a1-3)]Man(b1-4)GlcNAc(b1-4)GlcNAc
# How it was run: as §1
# [3] = target: Neu5Ac(a2-6)Gal(b1-4)GlcNAc(b1-2)Man(a1-6)[GlcNAc(b1-2)Man(a1-3)]Man(b1-4)GlcNAc(b1-4)GlcNAc
# How it was run: as §1
# [4] = target: Neu5Ac(a2-6)Gal(b1-4)GlcNAc(b1-2)Man(a1-6)[Man(a1-3)]Man(b1-4)GlcNAc(b1-4)GlcNAc
# How it was run: as §1
# [5] = target: Neu5Ac(a2-6)Gal(b1-4)GlcNAc(b1-2)[Neu5Ac(a2-6)Gal(b1-4)GlcNAc(b1-4)]Man(a1-3)[GlcNAc(b1-4)][Neu5Ac(a2-6)Gal(b1-4)GlcNAc(b1-2)[Neu5Ac(a2-6)Gal(b1-4)GlcNAc(b1-6)]Man(a1-6)]Man(b1-4)GlcNAc(b1-4)GlcNAc
# How it was run: as §1
# [6] = target: Neu5Ac(a2-6)Gal(b1-4)GlcNAc(b1-2)[Neu5Ac(a2-6)Gal(b1-4)GlcNAc(b1-4)]Man(a1-3)[GlcNAc(b1-4)][Neu5Ac(a2-6)Gal(b1-4)GlcNAc(b1-4)Man(a1-6)]Man(b1-4)GlcNAc(b1-4)GlcNAc
# How it was run: as §1
# [7] = target: Neu5Ac(a2-6)Gal(b1-4)GlcNAc(b1-2)[Neu5Ac(a2-6)Gal(b1-4)GlcNAc(b1-6)]Man(a1-6)[Neu5Ac(a2-6)Gal(b1-4)GlcNAc(b1-2)Man(a1-3)][GlcNAc(b1-4)]Man(b1-4)GlcNAc(b1-4)GlcNAc
# How it was run: as §1
# [8] = target: Neu5Ac(a2-6)Gal(b1-4)GlcNAc(b1-3)Gal(b1-3)GlcNAc
# How it was run: as §1
# [9] = target: Neu5Ac(a2-6)Gal(b1-4)GlcNAc(b1-3)Gal(b1-4)GlcNAc
# How it was run: as §1
# [10] = target: Neu5Ac(a2-6)Gal(b1-4)GlcNAc(b1-3)Gal(b1-4)GlcNAc(b1-2)Man(a1-3)[Neu5Ac(a2-6)Gal(b1-4)GlcNAc(b1-3)Gal(b1-4)GlcNAc(b1-2)Man(a1-6)]GalNAc
# How it was run: as §1
# [11] = target: Neu5Ac(a2-6)Gal(b1-4)GlcNAc(b1-3)Gal(b1-4)GlcNAc(b1-3)Gal(b1-4)GlcNAc
# How it was run: as §1
# [12] = target: Neu5Ac(a2-6)Gal(b1-4)GlcNAc(b1-3)Gal(b1-4)GlcNAc(b1-3)Gal(b1-4)GlcNAc(b1-2)Man(a1-3)[Neu5Ac(a2-6)Gal(b1-4)GlcNAc(b1-3)Gal(b1-4)GlcNAc(b1-3)Gal(b1-4)GlcNAc(b1-2)Man(a1-6)]GalNAc
# How it was run: as §1
# [13] = target: Neu5Ac(a2-6)Gal(b1-4)GlcNAc(b1-3)Gal(b1-4)GlcNAc(b1-3)GalNAc
# How it was run: as §1
# [14] = target: Neu5Ac(a2-6)Gal(b1-4)GlcNAc(b1-3)Gal(b1-4)GlcNAc(b1-3)[Neu5Ac(a2-6)Gal(b1-4)GlcNAc(b1-3)Gal(b1-4)GlcNAc(b1-6)]GalNAc
# How it was run: as §1
# [15] = target: Neu5Ac(a2-6)Gal(b1-4)GlcNAc(b1-3)Gal(b1-4)GlcNAc(b1-6)[Gal(b1-3)]GalNAc
# How it was run: as §1
# [16] = target: Neu5Ac(a2-6)Gal(b1-4)GlcNAc(b1-3)Gal(b1-4)[Fuc(a1-3)]GlcNAc(b1-3)Gal(b1-4)[Fuc(a1-3)]GlcNAc
# How it was run: as §1
# [17] = target: Neu5Ac(a2-6)Gal(b1-4)GlcNAc(b1-3)GalNAc
# How it was run: as §1
# [18] = target: Neu5Ac(a2-6)Gal(b1-4)GlcNAc(b1-3)[Neu5Ac(a2-6)Gal(b1-4)GlcNAc(b1-6)]GalNAc
# How it was run: as §1
# [19] = target: Neu5Ac(a2-6)Gal(b1-4)GlcNAc(b1-6)GalNAc
# How it was run: as §1
# [20] = target: Neu5Ac(a2-6)Gal(b1-4)GlcNAc(b1-6)[Gal(b1-3)GlcNAc(b1-3)]Gal(b1-4)Glc
# How it was run: as §1
# [21] = target: Neu5Ac(a2-6)Gal(b1-4)GlcNAc(b1-6)[Gal(b1-3)]GalNAc
# How it was run: as §1
# [22] = target: Neu5Ac(a2-6)Gal(b1-4)GlcNAc6S
# How it was run: as §1
# Neu5Ac(a2-6)GalNAc = target: Neu5Ac(a2-6)GalNAc
# How it was run: as §1
# [23] = target: Neu5Ac(a2-6)GalNAc(b1-4)GlcNAc
# How it was run: as §1
# [24] = target: Neu5Ac(a2-6)GalNAc(b1-4)GlcNAc6S
# How it was run: as §1
# [25] = target: Neu5Ac(a2-6)GlcNAc(b1-4)GlcNAc
# How it was run: as §1
# [26] = target: Neu5Ac(a2-6)GlcNAc(b1-4)GlcNAc(b1-4)GlcNAc
# How it was run: as §1
# Neu5Ac(a2-8)Neu5Ac = target: Neu5Ac(a2-8)Neu5Ac
# How it was run: as §1
# [27] = target: Neu5Ac(a2-8)Neu5Ac(a2-3)Gal(b1-3)GalNAc(b1-4)[Neu5Ac(a2-3)]Gal(b1-4)Glc
# How it was run: as §1
# [28] = target: Neu5Ac(a2-8)Neu5Ac(a2-3)Gal(b1-3)GalNAc(b1-4)[Neu5Ac(a2-8)Neu5Ac(a2-3)]Gal(b1-4)Glc
# How it was run: as §1
# [29] = target: Neu5Ac(a2-8)Neu5Ac(a2-3)Gal(b1-4)Glc
# How it was run: as §1
# [30] = target: Neu5Ac(a2-8)Neu5Ac(a2-3)Gal(b1-4)GlcNAc
# How it was run: as §1
# [31] = target: Neu5Ac(a2-8)Neu5Ac(a2-3)[Gal(b1-3)GalNAc(b1-4)]Gal(b1-4)Glc
# How it was run: as §1
# [32] = target: Neu5Ac(a2-8)Neu5Ac(a2-3)[GalNAc(b1-4)]Gal(b1-4)Glc
# How it was run: as §1
# [33] = target: Neu5Ac(a2-8)Neu5Ac(a2-8)Neu5Ac
# How it was run: as §1
# [34] = target: Neu5Ac(a2-8)Neu5Ac(a2-8)Neu5Ac(a2-3)Gal(b1-4)Glc
# How it was run: as §1
# [35] = target: Neu5Ac(a2-8)Neu5Ac(a2-8)Neu5Ac(a2-3)[Gal(b1-3)GalNAc(b1-4)]Gal(b1-4)Glc
# How it was run: as §1
# [36] = target: Neu5Ac(a2-8)Neu5Ac(a2-8)Neu5Ac(a2-3)[GalNAc(b1-4)]Gal(b1-4)Glc
# How it was run: as §1
# [37] = target: Neu5Ac(a2-8)Neu5Ac(a2-8)Neu5Ac(a2-8)Neu5Ac(a2-3)[GalNAc(b1-4)]Gal(b1-4)Glc
# How it was run: as §1
# [38] = target: Neu5Ac(a2-8)Neu5Gc(a2-3)Gal(b1-4)GlcNAc
# How it was run: as §1
# Neu5Ac(b1-6)GalNAc = target: Neu5Ac(b1-6)GalNAc
# How it was run: as §1
# [39] = target: Neu5Ac(b2-6)Gal(b1-4)GlcNAc
# How it was run: as §1
# Neu5Ac(b2-6)GalNAc = target: Neu5Ac(b2-6)GalNAc
# How it was run: as §1
# [40] = target: Neu5Ac9Ac(a2-3)Gal(b1-3)GlcNAc
# How it was run: as §1
# [41] = target: Neu5Ac9Ac(a2-3)Gal(b1-4)GlcNAc
# How it was run: as §1
binder,measurement,setting,value
B1,glycan array binding signal (z-score),[1],-0.189
same,glycan array binding signal (z-score),[2],0.158
same,glycan array binding signal (z-score),[3],-0.135
same,glycan array binding signal (z-score),[4],3.55
same,glycan array binding signal (z-score),[5],-0.208
same,glycan array binding signal (z-score),[6],-0.207
same,glycan array binding signal (z-score),[7],-0.215
same,glycan array binding signal (z-score),[8],-0.209
same,glycan array binding signal (z-score),[9],-0.211
same,glycan array binding signal (z-score),[10],-0.165
same,glycan array binding signal (z-score),[11],-0.208
same,glycan array binding signal (z-score),[12],-0.107
same,glycan array binding signal (z-score),[13],-0.005
same,glycan array binding signal (z-score),[14],-0.097
same,glycan array binding signal (z-score),[15],-0.191
same,glycan array binding signal (z-score),[16],-0.137
same,glycan array binding signal (z-score),[17],-0.145
same,glycan array binding signal (z-score),[18],-0.214
same,glycan array binding signal (z-score),[19],-0.188
same,glycan array binding signal (z-score),[20],-0.21
same,glycan array binding signal (z-score),[21],-0.201
same,glycan array binding signal (z-score),[22],-0.217
same,glycan array binding signal (z-score),Neu5Ac(a2-6)GalNAc,-0.22
same,glycan array binding signal (z-score),[23],-0.222
same,glycan array binding signal (z-score),[24],-0.198
same,glycan array binding signal (z-score),[25],-0.22
same,glycan array binding signal (z-score),[26],-0.214
same,glycan array binding signal (z-score),Neu5Ac(a2-8)Neu5Ac,-0.208
same,glycan array binding signal (z-score),[27],-0.211
same,glycan array binding signal (z-score),[28],-0.199
same,glycan array binding signal (z-score),[29],-0.22
same,glycan array binding signal (z-score),[30],-0.215
same,glycan array binding signal (z-score),[31],-0.207
same,glycan array binding signal (z-score),[32],-0.212
same,glycan array binding signal (z-score),[33],-0.218
same,glycan array binding signal (z-score),[34],-0.223
same,glycan array binding signal (z-score),[35],-0.177
same,glycan array binding signal (z-score),[36],-0.198
same,glycan array binding signal (z-score),[37],-0.196
same,glycan array binding signal (z-score),[38],-0.216
same,glycan array binding signal (z-score),Neu5Ac(b1-6)GalNAc,-0.257
same,glycan array binding signal (z-score),[39],-0.217
same,glycan array binding signal (z-score),Neu5Ac(b2-6)GalNAc,-0.213
same,glycan array binding signal (z-score),[40],-0.213
same,glycan array binding signal (z-score),[41],-0.182
